According to PubChem BioAssay AID2546 (National Center for Advancing Translational Sciences (NCATS), 2010):
Hit rate of the full screen: of about 310,000 compounds, about 11,000 (3.5%) were called active. Inconclusive results, whose numbers are uncertain, are shown with a selection of clear calls. Calls follow the shape of the dose curve; as a rule, active = well fitted inhibition curve with a large enough effect; inconclusive = small, poorly fitted or top-dose-only effect, or effect the other way; inactive = flat fitted curve, though single readings scatter. Potencies of inconclusive entries are left out as doubtful fits.

Assay: VP16 counterscreen qHTS for inhibitors of ROR gamma transcriptional activity;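 also: Gal4-VP16 expression switched on by copper sulfate through the metallothionein promoter; nearly all actives have a fitted effect of over 50% in size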
Details: Drosophila S2 Gal4-VP16 UAS-luciferase, luminescence, 20 h; activity, negative = inhibition: at 53.6 µM (top of the series)
% is scaled to controls: 0 for no effect and ±100 for the full control effect; potency is read from the fitted curve at half-maximal effect; tags tell the direction and shape of the fitted curve.

Row | Compound | Potency | activity, negative = inhibition
1 | COC(=O)c1ccc(NC(=O)CCS(=O)(=O)c2ccc(Br)s2)cc1 | inconclusive [inhibitor, partial curve] | –
2 | Cn1c(=O)c(CCc2ccccc2)nc2cnc(N3CCOCC3)nc21 | – | inactive: 5.84%
3 | COc1ccc(N(CC(=O)Nc2ccc3c(c2)OCO3)S(=O)(=O)c2ccccc2)cc1OC | – | inactive: 1.33%
4 | CN1C(=O)/C(=C/c2cn(CC(=O)NCc3ccco3)c3ccccc23)NC1=S | – | inactive: 5.63%
5 | Cc1cc(N2CCN(C)CC2)nc2ccc(NC(=S)N3CCOCC3)cc12 | – | inactive: -2.43%
6 | CCC(O)CNc1nc(-n2nc(C)cc2C)nc2sc3c(c12)CCCC3 (centres undefined) | inconclusive [inhibitor, single point] | –
7 | CN(C)S(=O)(=O)c1cccc(NC(=S)N/N=C/c2cccc(O)c2)c1 | inconclusive [inhibitor, single point] | –
8 | Cc1ccccc1NC(=S)NCc1ccccc1 | active: 11.2 µM | –
9 | C=CCOC(=O)c1[nH]c2c(c1C)C(=O)CC(c1cc(OC)c(OC)c(OC)c1)C2 (centres undefined) | inconclusive [inhibitor, single point] | –
10 | C=CCn1c(SCc2ccccc2C#N)nnc1-c1cc(Br)ccc1O | active: 25.1 µM | –
11 | Cc1cc(C)n(CC(O)COc2ccc(F)cc2)n1 (centres undefined) | – | inactive: -3.21%
12 | Cc1ccc(C)c(N2CCN(Cc3nnnn3C3CCCCC3)CC2)c1 | inconclusive [inhibitor, single point] | –
13 | O=S(=O)(c1ccccc1)N1CCN=C1SCc1ccc(Cl)cc1 | inconclusive [inhibitor, single point] | –
14 | COc1ccc(C(=O)c2ccc(CC(=O)O)s2)cc1 | inconclusive [inhibitor, partial curve, poor fit] | –
15 | Cc1ccc(C(=O)NC2CCCc3c2cnn3-c2ccc(F)cc2F)cn1 (centres undefined) | active: 2.82 µM | –
16 | C/C(=N\Nc1ccc([N+](=O)[O-])cc1)c1ccco1 | inconclusive [activator, full curve, poor fit] | –
17 | COc1ccccc1NC(=O)N1CCN(Cc2ccc3c(c2)OCO3)CC1 | – | inactive: -1.23%
18 | CCCCCCNc1nc(NCc2ccco2)nc(OCC)n1 | inconclusive [inhibitor, single point] | –
19 | CCCCCCCCCCCCCCC(C(=O)OC)C(O)(CC(=O)OC)C(=O)OC (centres undefined) | – | inactive: -4.79%
20 | COc1ccc(S(=O)(=O)N(CC(=O)NCCSc2ccccn2)c2ccccc2)cc1 | inconclusive [inhibitor, single point] | –
21 | CCCN1C(=O)/C(=C\C=C2\N(CC)c3ccccc3C2(C)C)SC1=S | – | inactive: -3.5%
22 | Cc1sc2ncnc(NCC(C)(C)N3CCOCC3)c2c1C | active: 17.8 µM | –
23 | CCOc1ncccc1C(=O)OCc1ccc(C(=O)OC)cc1 | inconclusive [activator, single point] | –
24 | COc1ccc(NC2=Nc3ccccc3CC2)cc1 | inconclusive [inhibitor, single point] | –
25 | CCCCOc1ccc(C(=O)N/C(=C\c2ccc([N+](=O)[O-])cc2)C(=O)OCc2ccco2)cc1 | inconclusive [inhibitor, partial curve] | –

Row | Compound | Potency | activity, negative = inhibition
26 | Cc1[nH]c2c(Br)cccc2c1[C@H]1[C@@H](CC#N)C1(C)C | inconclusive [inhibitor, single point] | –
27 | N#CC1=C(Nc2ccccc2Cl)SC(c2ccccc2O)NC1=O (centres undefined) | inconclusive [inhibitor, single point] | –
28 | c1ccc(C2CSc3ccccc3N2)cc1 (centres undefined) | – | inactive: -2.78%
29 | COc1ccc(CNC(=O)C(c2ccc(C)o2)N(Cc2cccs2)C(=O)Cc2cccs2)cc1 (centres undefined) | inconclusive [inhibitor, single point] | –
30 | Cc1ccc(S(=O)(=O)N(CC(=O)N/N=C/c2cccc3c2OCCO3)c2ccccc2F)cc1 | – | inactive: 4.06%
31 | Cc1ccc(C(=O)N/N=C/c2ccc([N+](=O)[O-])s2)cc1 | active: 1.26 µM | –
32 | CN1[C@@H](CC(=O)c2ccccc2)CCC[C@H]1C[C@H](O)c1ccccc1 | inactive | –
33 | CC(C)(C)c1ccc(OCc2ccc(C(=O)N/N=C/c3ccc(O)c(O)c3)cc2)cc1 | active: 15.8 µM | –
34 | O=C(CSc1nnc2n1CCCN2)c1ccccc1 | inconclusive [activator, single point] | –
35 | COc1ccc(C2CCCN2C(=S)Nc2cccc(Cl)c2C)cc1OC (centres undefined) | inconclusive [inhibitor, single point] | –
36 | O=S(=O)(c1ccc(Br)s1)N1CCN(c2ccnc3cc(Cl)ccc23)CC1 | inconclusive [inhibitor, single point] | –
37 | Nn1cnnc1SC1CCCCC1NS(=O)(=O)c1ccccc1 (centres undefined) | active: 8.91 µM | –
38 | O=C(Nc1nc2nc(-c3ccccc3)cc(-c3ccccc3)n2n1)c1ccco1 | inconclusive [inhibitor, single point] | –
39 | O=C(NCc1ccccn1)C(=O)NCC1OCCN1S(=O)(=O)c1ccc([N+](=O)[O-])cc1 (centres undefined) | – | inactive: 6.45%
40 | COc1ccc(CNC(=S)NCc2ccc(Cl)cc2)cc1OC | active: 22.4 µM | –
41 | Cc1cccc(C)c1NC(=S)N(Cc1ccco1)C1CCN(C(C)C)CC1 | inconclusive [inhibitor, full curve, poor fit] | –
42 | CC(C)c1ccc(O)c(NC(=S)NC(=O)c2cccnc2)c1 | active: 1.41 µM | –
43 | COc1ccc(CCNC(=O)c2cc(S(=O)(=O)N3CCCC3)cn2C)cc1OC | inconclusive [inhibitor, single point] | –
44 | Cc1nnc(NC(=O)C(c2ccccc2)c2ccccc2)s1 | – | inactive: 7.09%
45 | O=C(NC1CCCCC1)C1CCCN1S(=O)(=O)c1ccc(Cl)cc1 (centres undefined) | – | inactive: -4.93%
46 | CCOc1ccc(NS(=O)(=O)c2ccc(C(=O)N(C)CCc3ccc(OC)c(OC)c3)cc2)cc1 | active: 7.08 µM | –
47 | O=C(COc1ccccc1Cl)N1CCc2ccccc21 | inconclusive [inhibitor, full curve] | –
48 | Cc1[nH]n(-c2ccc(Cl)c(Cl)c2)c(=O)c1CCO | inconclusive [inhibitor, single point] | –
49 | O=[N+]([O-])c1ccc(O)c(/C=N/n2c(-c3ccccc3)n[nH]c2=S)c1 | inconclusive [inhibitor, single point] | –
